The campaign covered roughly 310,000 compounds. About 2,200 (0.71%) showed an effect of 50% or more. Effects have a minus sign here. The list shows a part of the results. Where a SMILES comes first, the peptide text is derived from it. The star is where a group is joined. Cbz = O=C(OCc1ccccc1)*
Target: human ether-à-go-go-related gene (hERG) potassium channel (human, UniProt Q12809)
Experiment: primary screen, population patch clamp on CHO cells stably expressing hERG

Sequence of human ether-à-go-go-related gene (hERG) potassium channel (Q12809 whole entry, looked up): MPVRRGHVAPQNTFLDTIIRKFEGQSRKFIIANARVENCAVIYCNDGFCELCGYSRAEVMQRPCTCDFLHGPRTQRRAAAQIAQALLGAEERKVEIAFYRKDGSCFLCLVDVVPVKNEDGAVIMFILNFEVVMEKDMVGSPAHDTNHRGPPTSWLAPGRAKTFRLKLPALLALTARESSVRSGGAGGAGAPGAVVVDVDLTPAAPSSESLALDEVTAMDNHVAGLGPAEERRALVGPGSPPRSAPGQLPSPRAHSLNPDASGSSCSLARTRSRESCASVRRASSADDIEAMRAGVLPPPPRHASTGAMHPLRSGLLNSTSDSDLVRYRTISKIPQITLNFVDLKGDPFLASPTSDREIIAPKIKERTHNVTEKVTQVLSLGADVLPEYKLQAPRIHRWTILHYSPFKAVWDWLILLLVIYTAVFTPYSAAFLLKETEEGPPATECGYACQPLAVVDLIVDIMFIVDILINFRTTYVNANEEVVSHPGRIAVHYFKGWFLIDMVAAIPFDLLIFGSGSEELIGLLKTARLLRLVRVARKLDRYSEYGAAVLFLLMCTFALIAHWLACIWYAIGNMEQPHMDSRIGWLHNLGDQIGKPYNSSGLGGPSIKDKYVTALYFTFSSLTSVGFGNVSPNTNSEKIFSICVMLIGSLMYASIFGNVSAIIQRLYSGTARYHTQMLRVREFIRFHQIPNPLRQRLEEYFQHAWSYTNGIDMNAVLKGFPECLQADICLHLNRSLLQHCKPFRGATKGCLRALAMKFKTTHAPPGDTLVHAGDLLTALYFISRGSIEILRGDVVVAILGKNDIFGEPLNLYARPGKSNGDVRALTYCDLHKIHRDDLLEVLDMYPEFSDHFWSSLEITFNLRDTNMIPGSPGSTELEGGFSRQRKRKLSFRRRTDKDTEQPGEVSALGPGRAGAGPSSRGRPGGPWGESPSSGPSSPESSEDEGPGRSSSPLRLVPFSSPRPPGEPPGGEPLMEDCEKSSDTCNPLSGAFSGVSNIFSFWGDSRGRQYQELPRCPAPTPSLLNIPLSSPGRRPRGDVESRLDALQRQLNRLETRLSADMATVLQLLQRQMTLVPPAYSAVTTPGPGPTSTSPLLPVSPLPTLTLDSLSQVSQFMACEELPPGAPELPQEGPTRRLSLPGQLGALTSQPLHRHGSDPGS

Row | SMILES | hERG current change (%, negative = inhibition) at 1uM [%]
1 | Cc1[nH]c2ccccc2c1/C=N/NC(=O)c1cccc([N+](=O)[O-])c1 | 15.3
2 | Cc1occc1C(=O)NN=C1C2CC3CC(C2)CC1C3 | -7.16
3 | CCOC(=O)N1CCc2c(sc3nc[nH]c(=O)c23)C1 | 6.97
4 | COc1cc(/C=C(\C#N)C(N)=O)ccc1OCc1c(C)no[n+]1[O-] | -2
5 | CCC(C)C(NC(=O)OCc1ccccc1)C(=O)NC(Cc1ccc(O)cc1)C(=O)OC (stereo not drawn) (Cbz-Ile-Tyr-OMe; configuration not given here) | 11.3
6 | O=C(COC(=O)c1cnc(Cl)c(Cl)c1)NC1CCCCCC1 | 13.7
7 | COc1cccc(OCCSc2nc(N)cc(N)n2)c1 | 2.02
8 | O=C(Nc1cccc(-c2nnco2)c1)c1cccs1 | 7.86
9 | COc1cc(C)c(Br)cc1S(=O)(=O)NCc1cccs1 | -13.7
10 | COc1cccc(CC(=O)NNC(=O)c2ccc3c(c2)OCO3)c1 | 1.97
11 | CCOC(CCn1c(SCc2ccc([N+](=O)[O-])cc2)nc2ccccc2c1=O)OCC | 4.07
12 | Cc1cc(NC(=O)CCC(=O)N(CC(=O)NC2CCCC2)Cc2ccc(F)cc2)no1 | 8.48
13 | CCc1ccc(S(=O)(=O)NCc2csc(C)n2)cc1 | 7.86
14 | CC(=O)N1CCN(CCN=CC2=C(O)CC(C)(C)CC2=O)CC1 | 8.18
15 | CC(Sc1nnc(COc2ccc(Cl)cc2)n1Cc1ccccc1)C(=O)O (stereo not drawn) | 8.19
16 | CCCN(CC(=O)Nc1cc(Cl)ccc1Cl)C(=O)c1ccccc1SCC(=O)N1CCCC1 | 3.82
17 | CC1(C)CC(=O)C2=C(C1)OC(c1ccncc1)C(C#N)=C2N (stereo not drawn) | -4.07
18 | CS(=O)(=O)N(Cc1ccccc1)c1ccc(C(=O)Nc2ccc(C(N)=O)cc2)cc1 | 13.9
19 | Cc1cc(=O)[nH]n(CCO)c1=O | 5.37
20 | O=C(COc1ccccc1Br)N1CCN(C(=O)c2cccs2)CC1 | -1.69
21 | Cc1ccc(NC(=O)CSc2nccn2Cc2ccco2)cc1 | 12.8
22 | COc1ccc(NC(=O)CSc2nncn2C)c([N+](=O)[O-])c1 | 7.17
23 | CC1Cc2ccccc2N1C1=NS(=O)(=O)c2ccccc21 (stereo not drawn) | 11.7

Row | SMILES | hERG current change (%, negative = inhibition) at 1uM [%]
24 | COc1cccc(OC)c1C(=O)Nn1c(-c2cccs2)nc2ccccc2c1=O | 3.68
25 | Cc1cc(NC(=O)c2c(-c3ccccc3Cl)noc2C)no1 | 8.68
26 | Cc1ccc(S(=O)(=O)NNC(=O)Nc2ccc(Cl)cc2)cc1 | 6.73
27 | CCOc1ccccc1NC(=O)COC(=O)CC(NC(N)=O)c1ccc(Cl)cc1 (stereo not drawn) | -44.4
28 | COCCNC(=O)c1ccccc1NC(=O)c1ccc(Cl)c(S(=O)(=O)Nc2ccc(C)cc2C)c1 | 6.85
29 | N#Cc1ccc(COC(=O)c2ccccn2)cc1 | 10.3
30 | O=C(NN1CCCCC1)c1cccc2ccccc12 | 14.3
31 | COc1ccccc1NC(=O)c1c(NC(=O)CCC(=O)O)sc2c1CCCCC2 | 13.7
32 | Cc1ccsc1C=Nc1ccc(O)cc1 | 5.79
33 | Cc1ccc(-c2nnc(SCC(N)=O)nc2-c2ccc(C)cc2)cc1 | 6.23
34 | COC(=O)C1=C(C)N(C(C)C)C(=O)C1(NC(C)=O)C(F)(F)F (stereo not drawn) | 4.86
35 | CC(C)(C)C(=O)Nc1c(Br)c(C2CC2)nn1-c1ccccc1 | 12.7
36 | O=S(=O)(c1ccc(S(=O)(=O)N2CCOCC2)cc1)N1CCCC1 | 14.7
37 | CCCCNc1nc2ccccc2n1CC(=O)N1CCc2ccccc2C1 | -6.59
38 | CCc1nnc(NC(=O)CSc2nnc(COc3ccccc3C)o2)s1 | 16
39 | CC1=C(C(=O)NC(C)CCc2ccccc2)C2(CCC(C)CC2)OC1=O (stereo not drawn) | 6.66
40 | O=C(COc1cccc2ccccc12)Nc1ccc(Cl)cc1C(=O)O | 15.5
41 | N#Cc1c(-c2ccc(Br)cc2)nc2n(c1=O)CCCS2 | 16.5
42 | O=C1c2ccccc2C(=O)N1CCc1c[nH]c2ccc(O)cc12 | 11.4
43 | CCn1c(SCC(=O)N2CCc3ccccc32)nnc1-c1ccncc1 | 10
44 | CCC1CSC(Nc2ccc(C(=O)/C=C/c3ccc(OC)c(OC)c3)cc2)=N1 (stereo not drawn) | -0.602
45 | COc1cc(C(C)=O)ccc1OCC(=O)Nc1ccc2nc(C)sc2c1 | 13.9
46 | CCCn1c(=O)c2c(nc3n2CCCN3Cc2ccccc2)n(C)c1=O | -3.54

Row | SMILES | hERG current change (%, negative = inhibition) at 1uM [%]
47 | O=S(=O)(Nc1ccc2c(c1)CCC2)c1cccs1 | -4.89
48 | Cn1cc(P(=O)(N2CCOCC2)N2CCOCC2)cc1P(=S)(N1CCOCC1)N1CCOCC1 | 17
49 | c1ccc(CNc2nc(-c3ccccn3)nc3ccccc23)cc1 | 1.64
50 | COc1ccccc1C(=O)c1c(C)c(CCC#N)n2ccccc12 | 5.71
51 | CCc1cccc(CC)c1NC(=O)COc1ccccc1C(=O)c1cc(C#N)c(=O)n(C2CCCCC2)c1 | 4.98
52 | CCC(C)(C)C(=O)O | 10.2
53 | N#Cc1ccccc1S(=O)(=O)N1CCN(C(=O)C2CCC2)CC1 | 8.39
54 | CC(C)C(=O)NC(=S)Nc1ccc(S(=O)(=O)N(C)Cc2ccccc2)cc1 | 9.29
55 | Cc1cc(C)c(NC(=O)CNC(=O)COC(=O)C2CCN(c3ccc(C(F)(F)F)cn3)CC2)c(C)c1 | 7.67
56 | CNCc1ccccc1OCc1ccc(F)cc1.Cl | 13.4
57 | COc1ccc(-c2[nH]ncc2CN(C)Cc2c(C)n[nH]c2C)c(OC)c1 | 11.3
58 | CCCCOc1ccc(NC(=O)c2cc(F)c(F)cc2Cl)cc1 | 10.1
59 | O=C(NC1CCCCC1)C1CCN(c2cnccn2)CC1 | 14.8
60 | O=c1c2ccccc2nc(SCc2ccccc2Cl)n1Cc1ccccc1 | 6.18
61 | Cc1nnc(SCCC(C)C)[nH]c1=O | 14
62 | O=C(NCC(c1cccnc1)N1CCOCC1)Oc1ccccc1 (stereo not drawn) | 2.83
63 | O=C(Nc1ccc(N2CCOCC2)cc1)C1CCN(S(=O)(=O)c2ccccc2F)CC1 | 7.24
64 | O=C(NC(=S)N(CCO)Cc1ccccc1)c1cc(Br)ccc1Cl | 13.8
65 | COC(=O)c1sccc1NC(=S)N1CCN(c2cccc(C)c2C)CC1 | -4.55
66 | CCN(CC(=O)Nc1c(F)cccc1F)C(=O)C1COc2ccccc2O1 (stereo not drawn) | 5.09
67 | CC(=O)c1ccccc1Oc1cc(NN2CCCCC2)c([N+](=O)[O-])cc1[N+](=O)[O-] | 8.88
68 | CC(=O)OCn1ncc(N2CCOCC2)c(Br)c1=O | 12.9
69 | COC(=O)Nc1ccc(S(=O)(=O)N2CCCc3ccccc32)cc1 | 17.4

Row | SMILES | hERG current change (%, negative = inhibition) at 1uM [%]
70 | C[C@H]1CCC(=O)N(CCSc2ccc(Br)cc2)CC1 | 8.63
71 | Cc1ccc(S(=O)(=O)Nc2ccc(S(=O)(=O)NCC3CCCO3)cc2)cc1 (stereo not drawn) | 17.3
72 | COc1ccc(-c2nc(C#N)c(N3CCN(c4ccccc4)CC3)o2)cc1 | 10.2
73 | CCOC(=O)CSC1=NC(=O)CS1 | 12.4
74 | CC(OC(=O)c1ccccc1C(=O)N(C)c1ccccc1)C(=O)Nc1ccccc1[N+](=O)[O-] (stereo not drawn) | -4.16
75 | O=C(OCc1cccc2ccccc12)C1CC(=O)N(c2ccccc2)C1 (stereo not drawn) | 7.98
76 | COc1cccc(C2CC(c3ccc(C(C)C)cc3)n3nc(N)nc3N2)c1 (stereo not drawn) | 3.49
77 | O=C1/C(=C/c2ccc(F)cc2)SC(=S)N1N1CCOCC1 | 13.3
78 | CCOc1ccc(NC(=O)N2CCC(c3nc4ccccc4o3)CC2)cc1 | 10.3
79 | COc1ccc(SC[C@H](Cc2ccccc2)N2CCN(C)CCC2=O)cc1 | -13.2
80 | CCOc1ccc(CC(=O)NC2CCN(Cc3ccccc3)CC2)cc1 | 5.5
81 | Cc1ccc(Cn2nnnc2CN2CCC(NC(=O)c3ccccc3F)CC2)cc1 | -8.48
82 | CC1CN(CCS(=O)(=O)c2cc(Cl)ccc2Cl)CC(C)O1 (stereo not drawn) | 9.16
83 | CCCCN(Cc1ccccc1)C(=O)C1CCN(Cc2sccc2C)CC1.O=C(O)C(=O)O | -35.7
84 | COc1ccc(/C(N)=N/OC(=O)CCCN2C(=O)c3ccccc3C2=O)cc1OC | 3.99
85 | O=C(Cc1ccc(Cl)cc1)Nc1ccc(-c2nnc(-c3ccco3)o2)cc1 | 14.8
86 | Br.CC(=O)Nc1nc(C)c(-c2csc(Nc3ccccn3)n2)s1 | 14.2
87 | O=S(=O)(NCC(c1cccnc1)N1CCOCC1)c1cccs1 (stereo not drawn) | 3.45
88 | CC(=O)c1c(COC(=O)c2ccc(C)cc2)nc2ccccc2[n+]1[O-] | 8.04
89 | COc1ccc(C(=O)/C=C/c2ccc(OC)c(COc3ccc(F)cc3)c2)cc1 | 9.29
90 | COc1ccc(C(=O)n2nc(C)c(Br)c2C)cc1OC | 10.9
